Measurements published in the supplement of paper PMC5499739.
Over roughly 16,000 sequences, “Z-score” has its median near -0.37; the highest 2% begin near 3.1. The list shows a part of the results.

test system: RBM10 RRM1-ZnF-RRM2 (GST-tagged construct); assay: RNAcompete 7-mer binding Z-score; higher = stronger binding preference
How it was run: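 Each heptamer motif was given a one-sided Z-score for enrichment across the probes that contained it. GST-tagged RBM10 constructs (20 pmol) were combined with 1.5 nmol of a designed pool of 241 399 RNAs of up to 41 nt, transcribed from microarray-derived DNA templates. Binding took place in 1 ml Hepes pH 7.8 buffer containing KCl, NaCl, glycerol, DTT, BSA and glutathione Sepharose beads for 30 min at 4°C. After four 2-min washes at 4°C, bound RNA was identified by microarray hybridisation.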

Sequence	RNAcompete 7-mer binding Z-score
GGUUAGG	4.22
UAUUUUG	-0.734
GCCGGAA	0.439
GAAGCUU	-0.475
AGAACGA	-0.0561
UAGGCAG	1.68
AUUCGGG	0.956
CCUGGAA	-0.479
CCCCGGA	-0.446
GUGGAAG	3.47
CAAGCAG	0.173
CCAACCC	-0.817
GAGCCCG	-0.715
UUUUCGC	-0.941
CCUAGGU	-0.0707
ACUGAGA	-0.0525
CGCGACA	-0.409
GCAUGCG	0.024
ACUCUUC	-0.912
UAUCCCU	-0.817
AUCUGGC	-0.599
AUAUUCU	-0.635
UUAAAAG	-0.184
GGAUACG	1.98
AAAUGUU	-0.409

Sequence	RNAcompete 7-mer binding Z-score
UAACCAG	0.0532
GUCAGAU	-0.078
CCGUCCG	-0.723
CCCGAAC	-0.73
GCAUACA	-0.198
AUCUCCC	-0.897
UGGCAUG	0.793
UUGGCAC	-0.184
GUUGUUA	-0.216
UCUGCGG	-0.253
AGCCGGA	0.108
UAUCCAG	-0.282
AACGCGC	-0.307
AAGCGAG	1.56
UCCCGAC	-0.77
CCCGUUC	-0.839
AGUUUGA	-0.337
GCUAUCC	-0.788
GGUGUCA	1.07
GCAGUCA	-0.213
UCAUGCC	-0.879
CGAGAUG	0.53
UACGAGG	1.03
CCGCCUG	-0.876
ACUUUGA	-0.865

Sequence	RNAcompete 7-mer binding Z-score
AUGCAGC	0.104
CGAUUGG	0.825
AUCCAAA	-0.602
CGCCCAA	-0.927
ACCUAGA	-0.559
GGUAUCU	-0.216
CGCGUUG	-0.326
CGGCCUG	-0.344
AAGUCCU	-0.686
AGCUGUG	0.155
GCAAUGC	0.0677
AGGUAGG	3.72
ACUCCUC	-0.814
AUGGAGC	1.3
CAUAAGG	0.548
AGAUCCA	-0.697
UUUGAUC	-0.719
UCGUGAG	0.144
ACUGUAA	-0.398
AGCCGAG	-0.278
AACAGUG	0.654
AGUGAUU	0.166
UAUAAAA	-0.435
AUAGAGA	0.501
CAAGGCA	1.01

Sequence	RNAcompete 7-mer binding Z-score
GCUCAGC	-0.577
CAUACGC	-0.573
UGGACGG	3
CUUGACU	-0.959
ACCCACU	-0.744
CGCGGUA	0.29
AGCACUC	-0.846
UAUCGGA	0.104
UUAAUCU	-0.744
CGUUAAG	-0.293
UAAAGAC	-0.384
CACCUGG	-0.282
GCAGGCU	0.461
UUCAUUC	-0.606
UGCUCCA	-0.679
GGCCACG	0.0932
GGACAGA	1.44
CCGCCGA	-0.69
CGGUGGU	1.62
CGCAUGA	-0.122
UUUUCCC	-0.832
GUGCGAU	0.0641
CUGCUCA	-0.766
GCCCUGG	-0.366
GGUCGUC	0.341

Sequence	RNAcompete 7-mer binding Z-score
CUUAGCC	-0.865
AUGCUCG	-0.588
CUGGAAU	-0.205
CACUGGA	-0.0634
UGUAGAU	0.235
CAGAUUG	-0.162
UCCUUCA	-0.788
AACAGCG	0.625
GCUAUAU	-0.57
GUUAUUU	-0.541
AGCAUCU	-0.755
GUAACGA	0.352
UGAAGUA	0.0823
GUGAGUU	0.603
UCCGUAC	-0.61
UUCUCCU	-0.846
AUAACCA	-0.326
UGGUACA	0.949
CUGGGUG	1.82
GUCGAAU	-0.078
AACGCAA	-0.169
CACAGCA	-0.366
UCUUACU	-0.814
CAAGCAC	-0.566
UGUUCAU	-0.555

Sequence	RNAcompete 7-mer binding Z-score
CCACAGA	-0.373
UCGGACC	-0.493
GCCUCAG	-0.719
CGCGGAC	-0.00148
CCCAGAC	-0.792
AUCGCUG	-0.617
UCAACCU	-0.774
UGCCCCG	-0.413
UCACGUG	-0.289
UGGCUAC	0.108
UGCUUCA	-0.81
CUUAGAC	-0.723
UUGCGGU	-0.0161
CUAGUCC	-0.763
UUAAGGG	1.55
CACUCCC	-0.781
UUCGUUC	-0.741
CUUCAAC	-0.759
UGCAUAG	0.0204
AUGGGUA	3.71
UUCCUCC	-0.883
CUCAGGG	0.592
AUGCGCC	-0.511
UACCGAA	-0.428
CCCAUUU	-1.1

Sequence	RNAcompete 7-mer binding Z-score
CUCUAUA	-0.77
CAUAUGA	-0.18
GUUCACC	-0.697
CCUGAUA	-0.854
GUGUAAC	0.661
GAGGUAG	2.99
CUCUUGA	-0.854
GUAUGUU	-0.202
GAUCCAG	0.0641
GCCUCUA	-0.887
UGCGCAC	-0.351
CAGAGCC	-0.562
CACCACU	-0.668
UAGUCCA	-0.683
GCCUUAA	-0.861
CUGCUCG	-0.861
AUACCCG	-0.493
ACCAGCU	-0.905
ACUAACC	-0.766
UAACUAG	-0.366
UAACAUU	-0.369
GCCCGGG	0.177
AUCGAUU	-0.697
ACCCAUG	-0.584
AAAUUCG	-0.46

Sequence	RNAcompete 7-mer binding Z-score
GGGGUAU	2.98
AAAAAAA	-0.49
UUUAGUG	-0.0197
CACCCUA	-0.621
UUCAUCA	-0.573
CGCUUAA	-0.839
AAUGAGA	0.727
AAGGAGA	3.18
GUACAAA	-0.0233
AAAGGGU	4.71
AAGUAGU	0.286
AUCUAUA	-0.533
AGAUCGG	0.57
UCGCCAG	-0.595
CGGGGAG	2.54
AAACUGA	-0.398
UCGCAUA	-0.289
CUGGAAA	0.235
CUUUUCA	-0.664
AGUUCCA	-0.65
UGUUUCU	-0.413
ACGGGCU	1.2
GUUGGGG	3.69
GGGAGGC	3.2
CGUCUGA	-0.712

Sequence	RNAcompete 7-mer binding Z-score
AACUGGC	0.0714
UAGUGUU	-0.0197
GUGCAUU	-0.122
UAAGACC	-0.555
CCGGGUG	1.62
GUCCUGG	0.213
GGGCAUC	1.56
AUGAGGA	2.12
GAGCUUG	-0.191
GAACGCC	-0.53
CAUUGCA	-0.471
UUCGACG	-0.497
UCAUGUC	-0.726
GUACCGA	-0.14
ACAUCAU	-0.581
UACGAAG	0.177
GCUCGAU	-0.602
AAAUUGG	0.967
GGAAUUC	0.246
CGUCAGU	-0.544
ACCCUGU	-0.916
UCCGAGA	-0.479
GUGACCC	-0.0525
AAGAGGC	1.01
ACACCGC	-0.672

Sequence	RNAcompete 7-mer binding Z-score
UUUUAGA	-0.65
UACAACU	-0.599
AAUGCAC	-0.195
CCGCUUA	-0.956
GUGGGUU	2.54
CCCCCCU	-0.362
UAGUACG	0.177
AUCGGGC	0.847
GGAUACA	2.49
AGCUGAG	0.101
UUAAGGC	0.283
CCUACCC	-0.668
UCAUAAC	-0.562
ACUACUC	-0.905
CCUCGAC	-0.795
GACUGAU	-0.409
UGUACGA	0.21
UCGGAUG	0.512
UCAUCAC	-0.715
AUGCUUG	-0.61
UGCUGAA	-0.46
AUAUCCC	-0.69
UCUUCUU	-0.795
CGGGACU	0.96
UAUAGUA	-0.14

Sequence	RNAcompete 7-mer binding Z-score
GAAGAUU	0.0058
CGAAAAC	-0.457
CCGGGCC	-0.592
GUUGUUC	-0.293
GUCACGA	-0.264
AGAGCAG	0.72
AAUUUCA	-0.57
AGCACUA	-0.176
ACCAAUA	-0.522
GUAUUAA	-0.187
CGUGAGG	1.73
GGUCGGG	2.72
GCAGCCC	-0.497
GUUUAGA	-0.169
UGUCUAU	-0.624
AUCAGAA	0.0604
GAGAACA	0.465
GGAUCGA	0.691
AAGGACG	2.66
CAAAUUG	-0.337
GCCGUAU	-0.446
GCCACGA	-0.366
UUAUAAA	-0.559
GUAAUUC	-0.238
CAGCAAA	-0.205

Sequence	RNAcompete 7-mer binding Z-score
ACGUAAG	0.232
GAUCUAG	-0.42
CUACAGU	-0.781
UGACCGA	-0.384
CAUGUCG	-0.508
CAGAUAU	-0.406
ACUUUAC	-0.799
CAUGGAA	1.36
GCUUGGG	1.24
CAACACU	-0.69
GAGCCAU	-0.446
UUCGGGC	0.075
CUGGUGA	0.425
GACCUUA	-1.09
UCGAAUG	-0.198
UAUUGAA	-0.293
GAUUUAG	0.385
AGAAUUU	-0.428
CGGUGCU	0.286
GUCAGCU	-0.49
GUGCUUC	-0.486
AUCUUGC	-1.02
GGUGGCA	2.34
UGAAGCG	0.581
AGGGACG	2.37

Sequence	RNAcompete 7-mer binding Z-score
AUAUCUU	-0.661
CCGAGUU	-0.788
UAGGAGU	2.42
GGGCAUA	1.8
AGCGAUU	-0.384
GUCCCCA	-0.347
CGUGUCU	-0.639
AAGCCUC	-0.861
UCUUGAU	-0.77
CCGGAAU	-0.0707
UUUUAGG	-0.067
GGCGAUA	0.873
ACGCUCG	-0.65
AUCUAUG	-0.584
ACCAUAA	-0.533
UAGACUG	-0.264
UCUGCAC	-0.708
ACCGGAG	0.683
CGAGGUG	2.14
ACGAACG	0.0058
AAUAGGA	1.57
CAACUAA	-0.482
GCCCGCU	-0.712
AUAUGGG	3.08
UUGGACC	-0.0452

Sequence	RNAcompete 7-mer binding Z-score
AACGGUU	0.982
UUACGCG	-0.395
UGCGCUA	-0.57
CCUUGAG	-0.697
GAAUUUU	-0.573
AUGACUC	-0.592
GGCUUCU	-0.679
UCGAAGU	0.00216
AAAGAAG	1.18
AGUGACG	1.3
AACCCUU	-1.03
ACGCGGC	-0.0634
GCAAAGG	2.18
GCGCCGU	-0.318
CGCAUAG	-0.122
UAAUAGC	-0.581
UUGGUUC	-0.417
ACCCCGA	-0.464
CUCAGUC	-0.715
GGGAUUC	1.24
UCGAGGC	0.355
GGCUACA	0.0167
AUCAUGU	-0.471
UAAACGG	0.869
CGUCCGA	-0.832

Sequence	RNAcompete 7-mer binding Z-score
UUCUUAA	-0.744
GAGUUAG	1.07
UUUACUC	-0.752
CACCAUU	-0.741
GGGGUGG	4.09
UCGCUGA	-0.519
ACGUGCA	0.0823
UAUUGCC	-0.803
AUGGUCG	1.07
AGGAUGA	1.57
UAGACCG	-0.344
CAUAGGU	1.15
CCGCGUG	-0.0743
CCCGAGC	-0.675
CAACGGG	2.59
UAGCGUU	-0.384
GAUAAUC	-0.388
